# Some of the results follow.
# B1: PhoQ; a variant is named by its letters at X, in order, P23837 (parent)
# chain: MKKLLRLFFPLSLRVRFLLATAAVVLVLSLAYGMVALIGYSVSFDKTTFRLLRGESNLFYTLAKWENNKLHVELPENIDKQSPTMTLIYDENGQLLWAQRDVPWLMKMIQPDWLKSNGFHEIEADVNDTSLLLSGDHSIQQQLQEVREDDDDAEMTHSVAVNVYPATSRMPKLTIVVVDTIPVELKSSYMVWSWFIYVLSANLLLVIPLLWVAAWWSLRPIEALAKEVRELEEHNRELLNPATTRELTSLVRNLNRLLKSERERYDKYRTTLTDLTHSLKTPLXXLQXXLRSLRSEKMSVSDAEPVMLEQISRISQQIGYYLHRASMRGGTLLSRELHPVAPLLDNLTSALNKVYQRKGVNISLDISPEISFVGEQNDFVEVMGNVLDNACKYCLEFVEISARQTDEHLYIVVEDDGPGIPLSKREVIFDRGQRVDTLRPGQGVGLAVAREITEQYEGKIVAGESMLGGARMEVIFGRQHSAPKDE
# Variants of: B1
# Test: enrichment ratio after two sorts for PhoP signalling (ratio (wild type AVST 3.29)); higher = more functional
# Conditions: with PhoP (E. coli)
row,Variant,enrichment ratio
1,MGSN,1.03
2,WKYK,≤ 0.25
3,NRFT,≤ 0.25
4,ISCM,2.52
5,DEHM,≤ 0.25
6,CLYS,≤ 0.25
7,SGSL,11.8
8,MCPQ,≤ 0.25
9,PWCV,≤ 0.25
10,WVCK,≤ 0.25
11,SDCM,17.2
12,PDFG,≤ 0.25
13,EYVR,≤ 0.25
14,LPQK,≤ 0.25
15,HTHA,≤ 0.25
16,GPIW,≤ 0.25
17,TIAA,12
18,CFRL,≤ 0.25
19,SFKY,≤ 0.25
20,WMVG,≤ 0.25
21,VNDI,≤ 0.25
22,RGWV,≤ 0.25
23,GIQP,≤ 0.25
24,DMTT,≤ 0.25

row,Variant,enrichment ratio
1,DSMN,≤ 0.25
2,GRAV,≤ 0.25
3,PVMI,≤ 0.25
4,KESE,≤ 0.25
5,FVAN,≤ 0.25
6,LQRA,≤ 0.25
7,LTIT,≤ 0.25
8,PDYN,≤ 0.25
9,VKFF,≤ 0.25
10,NSPN,≤ 0.25
11,IEMN,≤ 0.25
12,VSAL,3.53
13,GKIH,≤ 0.25
14,FWGQ,1.28
15,QIWG,≤ 0.25
16,WISL,≤ 0.25
17,DQDS,≤ 0.25
18,DPKN,≤ 0.25
19,GSDC,≤ 0.25
20,WPCL,≤ 0.25
21,IEPN,≤ 0.25
22,FHGP,≤ 0.25
23,LVIQ,≤ 0.25
24,WEQI,≤ 0.25

row,Variant,enrichment ratio
1,QYAW,≤ 0.25
2,SQPP,≤ 0.25
3,HDLF,≤ 0.25
4,HFQR,≤ 0.25
5,FRQV,≤ 0.25
6,TPYS,≤ 0.25
7,KHSA,≤ 0.25
8,IYSK,≤ 0.25
9,GLFM,≤ 0.25
10,FQKA,≤ 0.25
11,RWCS,≤ 0.25
12,MSRV,≤ 0.25
13,MTSG,1.93
14,LRQT,≤ 0.25
15,NEMG,≤ 0.25
16,RFIM,≤ 0.25
17,WIPM,≤ 0.25
18,EMVK,≤ 0.25
19,IEAT,≤ 0.25
20,GTIP,≤ 0.25
21,VKPF,≤ 0.25
22,AHRL,≤ 0.25
23,HLPC,≤ 0.25
24,KMEW,≤ 0.25

row,Variant,enrichment ratio
1,QLPQ,≤ 0.25
2,EKKC,≤ 0.25
3,IWAF,≤ 0.25
4,VENF,≤ 0.25
5,VHMH,≤ 0.25
6,GHPF,≤ 0.25
7,QRPW,≤ 0.25
8,QIVF,≤ 0.25
9,SHYV,≤ 0.25
10,DADI,≤ 0.25
11,QVPK,≤ 0.25
12,TCYT,1.52
13,YQMH,≤ 0.25
14,HRNN,≤ 0.25
15,KISR,≤ 0.25
16,SNQG,6.93
17,YEDW,≤ 0.25
18,YCLR,≤ 0.25
19,SFII,≤ 0.25
20,MLTQ,≤ 0.25
21,MRRW,≤ 0.25
22,GPMF,≤ 0.25
23,TQVA,3.07
24,FADS,≤ 0.25

row,Variant,enrichment ratio
1,MKQE,≤ 0.25
2,PQQI,≤ 0.25
3,IFSV,≤ 0.25
4,GDIP,≤ 0.25
5,RYQF,≤ 0.25
6,HISR,≤ 0.25
7,DAVR,≤ 0.25
8,DFTP,≤ 0.25
9,PGER,≤ 0.25
10,FITN,≤ 0.25
11,TRAN,≤ 0.25
12,MDWY,≤ 0.25
13,MLTG,≤ 0.25
14,NRYD,≤ 0.25
15,ASIA,13.9
16,WHLG,≤ 0.25
17,VVHK,≤ 0.25
18,ECAL,≤ 0.25
19,VLWL,≤ 0.25
20,RTKF,≤ 0.25
21,DRIT,≤ 0.25
22,VDTP,≤ 0.25
23,YNDY,≤ 0.25
24,MYPS,≤ 0.25

row,Variant,enrichment ratio
1,IGYL,≤ 0.25
2,VYYS,≤ 0.25
3,CFHS,≤ 0.25
4,HQNC,≤ 0.25
5,EQNW,≤ 0.25
6,IEAH,≤ 0.25
7,PSTE,≤ 0.25
8,GTAC,≤ 0.25
9,GNKR,≤ 0.25
10,FHEW,≤ 0.25
11,GNSG,13.2
12,HAGF,≤ 0.25
13,GQFS,≤ 0.25
14,WLYD,≤ 0.25
15,ELSR,≤ 0.25
16,RGRE,≤ 0.25
17,IILI,≤ 0.25
18,RSAT,≤ 0.25
19,GDSP,≤ 0.25
20,LITF,≤ 0.25
21,QCKV,≤ 0.25
22,LGWP,≤ 0.25
23,HWQM,≤ 0.25
24,LHVY,≤ 0.25

row,Variant,enrichment ratio
1,WWCF,≤ 0.25
2,DRVQ,≤ 0.25
3,MKTQ,≤ 0.25
4,PWDD,≤ 0.25
5,IFIM,≤ 0.25
6,LVNR,≤ 0.25
7,HRIS,≤ 0.25
8,GNFK,≤ 0.25
9,LFYK,≤ 0.25
10,WVKT,≤ 0.25
11,YWEL,≤ 0.25
12,WRQS,≤ 0.25
13,FGAY,≤ 0.25
14,TCDE,≤ 0.25
15,NVNW,≤ 0.25
16,FWKD,≤ 0.25
17,YPSG,≤ 0.25
18,MQAV,18.4
19,GEYP,≤ 0.25
20,NNFY,≤ 0.25
21,HTFG,≤ 0.25
22,RNKK,≤ 0.25
23,PINV,≤ 0.25
24,AGTA,0.557

row,Variant,enrichment ratio
1,SFLP,≤ 0.25
2,LETQ,≤ 0.25
3,RWRL,≤ 0.25
4,VIII,≤ 0.25
5,PAYV,≤ 0.25
6,MRDA,≤ 0.25
7,LHLN,≤ 0.25
8,GDPM,≤ 0.25
9,IVQP,≤ 0.25
10,SRNG,≤ 0.25
11,YWLT,≤ 0.25
12,IKVM,≤ 0.25
13,NARH,≤ 0.25
14,TRTM,1.9
15,DMCD,≤ 0.25
16,VLPV,≤ 0.25
17,FWTH,≤ 0.25
18,DFVC,≤ 0.25
19,SRSQ,≤ 0.25
20,LMVR,≤ 0.25
21,EQSI,≤ 0.25
22,TDRI,≤ 0.25
23,LWWI,≤ 0.25
24,RIFV,≤ 0.25

row,Variant,enrichment ratio
1,TIHS,2.26
2,WWRS,≤ 0.25
3,WNAW,≤ 0.25
4,YDSW,≤ 0.25
5,WLYP,≤ 0.25
6,TWQS,≤ 0.25
7,YSFF,≤ 0.25
8,VCPP,0.292
9,PKVH,≤ 0.25
10,VEIQ,≤ 0.25
11,WFRH,≤ 0.25
12,QGAE,≤ 0.25
13,EAIK,≤ 0.25
14,AQVH,7.73
15,MIIW,≤ 0.25
16,GQIH,≤ 0.25
17,MFEA,≤ 0.25
18,HQQN,≤ 0.25
19,GFWI,≤ 0.25
20,ASMH,16.5
21,EYAQ,≤ 0.25
22,MIIG,≤ 0.25
23,QSMY,≤ 0.25
24,QTLG,≤ 0.25

row,Variant,enrichment ratio
1,RCSM,≤ 0.25
2,YSSP,≤ 0.25
3,TQGD,2.92
4,MIPK,≤ 0.25
5,IELC,≤ 0.25
6,HKKM,≤ 0.25
7,PNEV,≤ 0.25
8,WGLV,5.51
9,ECTK,≤ 0.25
10,ELWS,≤ 0.25
11,TLLS,0.896
12,GHLI,≤ 0.25
13,VLHK,≤ 0.25
14,IRRL,0.349
15,FNRM,≤ 0.25
16,VINF,≤ 0.25
17,LKCE,≤ 0.25
18,DILF,≤ 0.25
19,SGHC,≤ 0.25
20,AQTQ,≤ 0.25
21,KHCT,≤ 0.25
22,FCHV,≤ 0.25
23,MQGG,2.73
24,CRVY,≤ 0.25

row,Variant,enrichment ratio
1,MFCT,≤ 0.25
2,GRCQ,≤ 0.25
3,WIWT,≤ 0.25
4,METT,13
5,MVWL,≤ 0.25
6,WRRN,≤ 0.25
7,RMLG,≤ 0.25
8,EGSN,≤ 0.25
9,RGQI,≤ 0.25
10,QLKP,≤ 0.25
11,PAVS,≤ 0.25
12,VMCA,≤ 0.25
13,TDAI,13.6
14,QLQF,≤ 0.25
15,YVTL,0.327
16,HTGH,≤ 0.25
17,MDCP,≤ 0.25
18,HPEC,≤ 0.25
19,QEYH,3.82
20,ESNI,≤ 0.25
21,LTAI,≤ 0.25
22,IPHG,≤ 0.25
23,LMIW,≤ 0.25
24,VIKS,≤ 0.25

row,Variant,enrichment ratio
1,PFVI,≤ 0.25
2,ELWH,≤ 0.25
3,YDSE,≤ 0.25
4,VTNF,≤ 0.25
5,PLGI,≤ 0.25
6,WQLC,≤ 0.25
7,NLKR,≤ 0.25
8,PRIE,≤ 0.25
9,VYAG,≤ 0.25
10,DLWR,≤ 0.25
11,IAAF,≤ 0.25
12,TNYW,≤ 0.25
13,GMSE,2.63
14,WIKM,≤ 0.25
15,FSGP,≤ 0.25
16,TKLQ,6.41
17,WLFW,≤ 0.25
18,RLWK,≤ 0.25
19,MTPV,≤ 0.25
20,DQCT,≤ 0.25
21,MFGY,≤ 0.25
22,SPAR,≤ 0.25
23,KCEY,≤ 0.25
24,WEIR,≤ 0.25

row,Variant,enrichment ratio
1,QYVM,≤ 0.25
2,EGAA,≤ 0.25
3,TAAT,6.82
4,RNKA,≤ 0.25
5,WFSL,≤ 0.25
6,TETV,17.9
7,NLPP,≤ 0.25
8,FPSK,≤ 0.25
9,KFGK,≤ 0.25
10,TGGY,7.07
11,GGRR,≤ 0.25
12,GCFK,≤ 0.25
13,WESD,≤ 0.25
14,HQLC,≤ 0.25
15,MIVP,≤ 0.25
16,ASKH,≤ 0.25
17,MPQL,≤ 0.25
18,MPLI,≤ 0.25

# Source: a collection of fitness landscapes (doi:10.1126/science.1257360)
